From a collection of fitness landscapes (doi:10.1126/science.1257360)
Some of the results follow.

B1: PhoQ; a variant is named by its letters at X, in order, P23837 (parent)
chain: MKKLLRLFFPLSLRVRFLLATAAVVLVLSLAYGMVALIGYSVSFDKTTFRLLRGESNLFYTLAKWENNKLHVELPENIDKQSPTMTLIYDENGQLLWAQRDVPWLMKMIQPDWLKSNGFHEIEADVNDTSLLLSGDHSIQQQLQEVREDDDDAEMTHSVAVNVYPATSRMPKLTIVVVDTIPVELKSSYMVWSWFIYVLSANLLLVIPLLWVAAWWSLRPIEALAKEVRELEEHNRELLNPATTRELTSLVRNLNRLLKSERERYDKYRTTLTDLTHSLKTPLXXLQXXLRSLRSEKMSVSDAEPVMLEQISRISQQIGYYLHRASMRGGTLLSRELHPVAPLLDNLTSALNKVYQRKGVNISLDISPEISFVGEQNDFVEVMGNVLDNACKYCLEFVEISARQTDEHLYIVVEDDGPGIPLSKREVIFDRGQRVDTLRPGQGVGLAVAREITEQYEGKIVAGESMLGGARMEVIFGRQHSAPKDE

Variants of: B1
Assay: enrichment ratio after two sorts for PhoP signalling (ratio (wild type AVST 3.29)); higher = more functional
Conditions: with PhoP (E. coli)

Point of comparison: QIHG, enrichment ratio 2.32. Against it:
- APDV — lower, ≤ 0.25
- DMNI — lower, ≤ 0.25
- THTL — higher, 5.01
- EYVM — lower, ≤ 0.25
- VDVQ — lower, ≤ 0.25
- LSRK — lower, ≤ 0.25
- TCCL — higher, 13.8
- KDCR — lower, ≤ 0.25
- RTGE — lower, ≤ 0.25
- HQFI — lower, ≤ 0.25
- NWGE — lower, ≤ 0.25
- SKQQ — lower, ≤ 0.25
- KEWG — lower, ≤ 0.25
- QPPD — lower, ≤ 0.25
- MFYR — lower, ≤ 0.25
- KLQF — lower, ≤ 0.25
- VWSF — lower, ≤ 0.25
- NVLQ — lower, ≤ 0.25
- RIAP — lower, ≤ 0.25
- YMCR — lower, ≤ 0.25
- AEHL — lower, ≤ 0.25
- LCLG — lower, ≤ 0.25
- AFIA — lower, ≤ 0.25
- ADSS — lower, ≤ 0.25
- NKMP — lower, ≤ 0.25
- GGTC — lower, ≤ 0.25
- LPIV — lower, ≤ 0.25
- MEPT — lower, ≤ 0.25
- PMAF — lower, ≤ 0.25
- YSPQ — lower, ≤ 0.25
- VYQH — lower, ≤ 0.25
- TPSC — lower, ≤ 0.25
- IEQG — lower, ≤ 0.25
- VKTS — lower, ≤ 0.25
- HHQS — lower, ≤ 0.25
- LMNN — lower, ≤ 0.25
- VADS — lower, ≤ 0.25
- SDSK — lower, ≤ 0.25
- QTVY — lower, ≤ 0.25
- SSRN — lower, ≤ 0.25
- QRTI — lower, ≤ 0.25
- DNTE — lower, ≤ 0.25
- GQSI — lower, ≤ 0.25
- ANKV — lower, ≤ 0.25
- EKSM — lower, ≤ 0.25
- FQVQ — lower, ≤ 0.25
- SQRN — lower, ≤ 0.25
- NCTC — lower, ≤ 0.25
- KCFT — lower, ≤ 0.25
- RIFG — lower, ≤ 0.25
- PIVY — lower, ≤ 0.25
- ICLD — lower, ≤ 0.25
- GLFA — lower, ≤ 0.25
- MANY — lower, ≤ 0.25
- VWFF — lower, ≤ 0.25
- RRLG — lower, ≤ 0.25
- DPST — lower, ≤ 0.25
- LPFA — lower, ≤ 0.25
- RMQG — lower, ≤ 0.25
- MLWS — lower, ≤ 0.25
- TDGE — lower, ≤ 0.25
- NSAI — lower, 0.375
- HIVI — lower, ≤ 0.25
- GEPN — lower, ≤ 0.25
- WYCR — lower, ≤ 0.25
- HRRE — lower, ≤ 0.25
- HVWW — lower, ≤ 0.25
- KRGW — lower, ≤ 0.25
- SDWN — lower, ≤ 0.25
- VPND — lower, ≤ 0.25
- DELH — lower, ≤ 0.25
- TGLW — lower, ≤ 0.25
- ATRH — lower, ≤ 0.25
- HAMS — lower, ≤ 0.25
- AGFE — lower, ≤ 0.25
- HRGP — lower, ≤ 0.25
- QMSI — higher, 6.25
- IVLH — lower, ≤ 0.25
- FLLH — lower, ≤ 0.25
- WSCC — lower, ≤ 0.25
- TAII — lower, ≤ 0.25
- DCWR — lower, ≤ 0.25
- GPRF — lower, ≤ 0.25
- AHSF — lower, ≤ 0.25
- QCSF — higher, 2.45
- VRVT — lower, ≤ 0.25
- EKTV — lower, ≤ 0.25
- GNFD — lower, ≤ 0.25
- YVVL — lower, ≤ 0.25
- MPGG — lower, ≤ 0.25
- EGTM — lower, ≤ 0.25
- SHHD — lower, ≤ 0.25
- ENMV — lower, ≤ 0.25
- GPKW — lower, ≤ 0.25
- STVN — higher, 5.2
- YPNC — lower, ≤ 0.25
- FILE — lower, ≤ 0.25
- FHWE — lower, ≤ 0.25
- NQLG — lower, ≤ 0.25
- SFCK — lower, ≤ 0.25
- KHLE — lower, ≤ 0.25
- PDQL — lower, ≤ 0.25
- ACSF — higher, 13.3
- KAHH — lower, ≤ 0.25
- KPWG — lower, ≤ 0.25
- PKLL — lower, ≤ 0.25
- GPWN — lower, ≤ 0.25
- FTIC — lower, ≤ 0.25
- PSYY — lower, ≤ 0.25
- TDNH — lower, ≤ 0.25
- QTYD — lower, ≤ 0.25
- RHEM — lower, ≤ 0.25
- IITC — lower, ≤ 0.25
- VYNA — lower, ≤ 0.25
- INTP — lower, ≤ 0.25
- SSEQ — lower, ≤ 0.25
- NWFC — lower, ≤ 0.25
- DRIS — lower, ≤ 0.25
- YASK — lower, ≤ 0.25
- MEDR — lower, ≤ 0.25
- GGAE — lower, ≤ 0.25
- VCFA — lower, ≤ 0.25
- WPDR — lower, ≤ 0.25
- VLEL — lower, ≤ 0.25
- GSAY — lower, ≤ 0.25
- VLVV — lower, ≤ 0.25
- VNCN — lower, ≤ 0.25
- VIFH — lower, ≤ 0.25
- HEQH — lower, ≤ 0.25
- DASP — lower, ≤ 0.25
- EAMW — lower, ≤ 0.25
- YEYG — lower, ≤ 0.25
- SEML — higher, 4.68
- KNRA — lower, ≤ 0.25
- YNRS — lower, ≤ 0.25
- DSNL — lower, ≤ 0.25
- LMEV — lower, ≤ 0.25
- YIRV — lower, ≤ 0.25
- YGHP — lower, ≤ 0.25
- PLYW — lower, ≤ 0.25
- AEFT — higher, 6.27
- NTSH — lower, ≤ 0.25
- EHNK — lower, ≤ 0.25
- PLWN — lower, ≤ 0.25
- ITDW — lower, ≤ 0.25
- YYTD — lower, ≤ 0.25
- IQTV — lower, ≤ 0.25
- MCLV — higher, 9.35
- ISKG — lower, ≤ 0.25
- PCFY — lower, 0.338
- SNKL — lower, ≤ 0.25
- LNSP — lower, ≤ 0.25
- QNRR — lower, ≤ 0.25
- FIST — lower, ≤ 0.25
- IIAK — lower, ≤ 0.25
- AGEL — lower, ≤ 0.25
- GVGD — lower, ≤ 0.25
- ELYQ — lower, ≤ 0.25
- NDII — lower, ≤ 0.25
- KRHV — lower, ≤ 0.25
- DCFC — lower, ≤ 0.25
- YLVF — lower, ≤ 0.25
- RHWS — lower, ≤ 0.25
- QMGA — lower, ≤ 0.25
- NMEL — lower, ≤ 0.25
- MNNA — lower, ≤ 0.25
- MLPI — lower, ≤ 0.25
- QLYH — lower, ≤ 0.25
- KNSI — lower, ≤ 0.25
- FYFW — lower, ≤ 0.25
- GGSF — lower, ≤ 0.25
- YHWT — lower, ≤ 0.25
- WERI — lower, ≤ 0.25
- IKYL — lower, ≤ 0.25
- PYMK — lower, ≤ 0.25
- LMMC — lower, ≤ 0.25
- GFND — lower, ≤ 0.25
- DVVP — lower, ≤ 0.25
- KCQG — lower, ≤ 0.25
- DEHW — lower, ≤ 0.25
- RNPG — lower, ≤ 0.25
- HLIH — lower, ≤ 0.25
- DNCF — lower, ≤ 0.25
- MACE — lower, ≤ 0.25
- FFWC — lower, ≤ 0.25
- GDNP — lower, ≤ 0.25
- KVLV — lower, ≤ 0.25
- NRPQ — lower, ≤ 0.25
- TNVP — lower, ≤ 0.25
- PKNP — lower, ≤ 0.25
- DWTT — lower, ≤ 0.25
- NQII — lower, ≤ 0.25
- SWLK — lower, ≤ 0.25
- IPKP — lower, ≤ 0.25
- PEWN — lower, ≤ 0.25
- GKAL — lower, ≤ 0.25
- AHCH — lower, 2.08
- MRHC — lower, ≤ 0.25
- EFEF — lower, ≤ 0.25
- MKCY — lower, ≤ 0.25
- NMSS — lower, ≤ 0.25
- NQYH — lower, ≤ 0.25
- QFIV — lower, ≤ 0.25
- QEAP — lower, ≤ 0.25
- RSEM — lower, ≤ 0.25
- QHMR — lower, ≤ 0.25
- TTFF — lower, ≤ 0.25
- KGLM — lower, ≤ 0.25
- ADTH — lower, ≤ 0.25
- LHGQ — lower, ≤ 0.25
- LAPW — lower, ≤ 0.25
- DGKI — lower, ≤ 0.25
- YGSM — lower, ≤ 0.25
- YNSC — lower, 0.283
- WCLM — lower, 1.17
- NRCV — lower, ≤ 0.25
- WAMW — lower, ≤ 0.25
- QLYY — lower, ≤ 0.25
- PRQD — lower, ≤ 0.25
- VPPR — lower, ≤ 0.25
- VLWI — lower, ≤ 0.25
- DRPA — lower, ≤ 0.25
- GLCM — higher, 5.66
- IERE — lower, ≤ 0.25
- GMCM — higher, 22
- LLFW — lower, ≤ 0.25
- NYKW — lower, ≤ 0.25
- GTRS — lower, ≤ 0.25
- ANML — higher, 13
- DECD — lower, ≤ 0.25
- HHAR — lower, ≤ 0.25
- TKQS — lower, 0.726
- PDSA — lower, ≤ 0.25
- PFYF — lower, ≤ 0.25
- DALL — lower, ≤ 0.25
- IEVG — lower, ≤ 0.25
- INIR — lower, ≤ 0.25
- WAYV — lower, ≤ 0.25
- NSSR — lower, ≤ 0.25
- PSAW — lower, ≤ 0.25
- GWCQ — lower, ≤ 0.25
- WLLA — lower, ≤ 0.25
- PGCS — lower, ≤ 0.25
- TKVD — lower, ≤ 0.25
- WNHW — lower, ≤ 0.25
- LKKQ — lower, ≤ 0.25
- FTPF — lower, ≤ 0.25
- PCLR — lower, ≤ 0.25
- LVNI — lower, ≤ 0.25
- IWYM — lower, ≤ 0.25
- TESH — higher, 32.2
- PKSY — lower, ≤ 0.25
- LNRY — lower, ≤ 0.25
- DQIC — higher, 2.34
- NECW — lower, ≤ 0.25
- MNFK — lower, ≤ 0.25
- RHND — lower, ≤ 0.25
- QMCC — lower, ≤ 0.25
- GLKC — lower, ≤ 0.25
- QGTT — lower, ≤ 0.25
- CSWL — lower, ≤ 0.25
- LYHG — lower, ≤ 0.25
- IGQW — lower, ≤ 0.25
- SYFK — lower, ≤ 0.25
- NHMT — lower, ≤ 0.25
- QCFQ — lower, ≤ 0.25
- LCMK — lower, 0.987
- MDCM — lower, ≤ 0.25
- KDAN — lower, ≤ 0.25
- PGRT — lower, ≤ 0.25
- GKDF — lower, ≤ 0.25
- FMVI — lower, ≤ 0.25
- MFVA — lower, ≤ 0.25
- TIFG — lower, ≤ 0.25
- PYFF — lower, ≤ 0.25
- VMDI — lower, ≤ 0.25
- LKPG — lower, ≤ 0.25
- MPTA — lower, ≤ 0.25
- WAFN — lower, ≤ 0.25
- NRHC — lower, ≤ 0.25
- NLLE — lower, ≤ 0.25
- VDSQ — lower, ≤ 0.25
- DLSV — lower, ≤ 0.25
- IYQC — lower, ≤ 0.25
- WYRE — lower, ≤ 0.25
- GTRR — lower, ≤ 0.25
- VGSN — lower, ≤ 0.25
- TCPR — lower, ≤ 0.25
- VREP — lower, ≤ 0.25
- HMVR — lower, ≤ 0.25
- HFIT — lower, ≤ 0.25
- MARV — lower, ≤ 0.25
- KRCE — lower, ≤ 0.25
- QGNR — lower, ≤ 0.25
- SPKI — lower, ≤ 0.25
- QWSS — lower, ≤ 0.25
- STSR — lower, ≤ 0.25
- WQWI — lower, ≤ 0.25
- YQQF — lower, ≤ 0.25
- VCHD — lower, ≤ 0.25
- RDKR — lower, ≤ 0.25
- IRKW — lower, ≤ 0.25
- TCMK — higher, 7.01
- ITGY — lower, ≤ 0.25
- YVLD — lower, ≤ 0.25
